Among the data in PubChem BioAssay AID1745853 (National Center for Advancing Translational Sciences (NCATS), 2022) are activity change, negative = inhibition values, retold here.

SMILES strings stand for the structures. The list shows a part of the results. Further columns of the screen follow, without active or inactive calls.

Common to all, as to experiment: Primary Screen for Target Class Profiling of Small Molecule Inhibitors of Methyltransferases
The target of test [1] is Glycine N-methyltransferase (Homo sapiens) (UniProt Q14749). Particulars: purified enzyme, MTase-Glo SAH luminescence; measured here: GNMT inhibition; at 40 µM; stronger effect = lower value. The procedure, abridged:
(§1)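 Each enzyme was assayed with SAM and its substrate. SAH formation detected by MTase-Glo luminescence; single-point 40 uM screen[…].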

For test [2], the target named is Guanidinoacetate N-methyltransferase (Homo sapiens) (UniProt Q14353). Particulars: purified enzyme, MTase-Glo SAH luminescence; measured here: GAMT inhibition; at 40 µM; stronger effect = lower value. The method, boiled down:
as §1

Test [3] concerns the target Histamine N-methyltransferase (Homo sapiens) (UniProt P50135). As to conditions: purified enzyme, MTase-Glo SAH luminescence; measured here: HNMT inhibition; at 40 µM; stronger effect = lower value. The method, boiled down: as §1
Test [4] has as its target Nicotinamide N-methyltransferase (Homo sapiens) (UniProt P40261). Particulars: purified enzyme, MTase-Glo SAH luminescence; measured here: NNMT inhibition; at 40 µM; stronger effect = lower value. The procedure, abridged: as §1
Test [5] has as its target Phenylethanolamine N-methyltransferase (Homo sapiens) (UniProt P11086). Particulars: purified enzyme, MTase-Glo SAH luminescence; measured here: PNMT inhibition; at 40 µM; stronger effect = lower value. The method, boiled down:
as §1
% is set by controls: 0 for no effect and ±100 for the full control effect.

Consider `COc1ccc(S(=O)(=O)N2CCc3c(C(=O)NCc4ccncc4)cccc32)cc1`, for which the activity change, negative = inhibition in test [1] was -9.94%; in test [2] it was -4.42%; in test [3], -4.88%; in test [4], -11.3%; in test [5] it was -5.42%.
In the same order, the values of `COc1ccc(CC(=O)Nc2ccc(N3CCC(NCCc4c(C)n[nH]c4C)CC3)cc2)cc1` are -4.08%, -1.52%, -7.44%, -7.29% and 1.12%.
Take `CC1(C(=O)NC2CCCC2)Cn2c(c(-n3cccc3)c3ccccc32)C(=O)N1Cc1ccccn1` (stereo not given): the activity change, negative = inhibition in test [1] is 5.01%; in test [2], 3.81%; in test [3] it was 4.34%; in test [4], -36.3%; in test [5] it was 2.6%.
Consider `Cc1ccc(N2C(=O)c3cc4occc4n3CC2(C)C(=O)NC2CCCCCCC2)cc1` (stereo not given), for which the activity change, negative = inhibition was determined as 3.38% in test [1]; 8.62% in test [2]; 10.4% in test [3]; 6.8% in test [4]; 1.09% in test [5].
For the compound `Cc1ccccc1NC(=O)Nc1ccc(CC(=O)N(C)[C@@H](CC(C)C)C(=O)NCC[C@H](NC(=O)[C@@H]2CCCN2S(=O)(=O)c2cc(Cl)cc(Cl)c2)C(=O)O)cc1`, the activity change, negative = inhibition was -1.56% in test [1]; 27.8% in test [2]; 2.21% in test [3]; -7.82% in test [4]; -2.5% in test [5].
For `CC1(C(=O)O)CC[C@]2(C(=O)OC3OC(CO)C(O)C(O)C3O)CC[C@]3(C)C(=CCC4[C@@]5(C)CC[C@H](OC6OCC(O)C(O)C6OC6OC(CO)C(O)C(O)C6O)C(C)(C)C5CC[C@]43C)C2C1` (stereo not given in full) the same measures were 1.17%, 2.42%, 2.9%, -8.74% and 4.86%.
Consider `Cc1ccccc1CCN1C(=O)c2ccc(-c3ccco3)n2CC1(C)C(=O)NC1CCCCCCC1` (stereo not given), for which the activity change, negative = inhibition in test [1] is -14.7%; in test [2], 1.15%; in test [3], -10%; in test [4], -14.7%; in test [5], -1.3%.
Take `O=C(Nc1cccc(Cl)c1)N1CCn2cccc2C1Cc1ccccc1` (stereo not given): the activity change, negative = inhibition in test [1] is -10.1%; in test [2] it was 0%; in test [3], 4.72%; in test [4] it was -0.213%; in test [5], -2.1%.
For `O=C(Cc1ccc(-c2ccccc2)cc1)NC1CCC1` the same measures were 2.68%, -1.65%, 8.34%, -11.3% and 1.81%.
For `COc1ccc(CNC(=O)c2ccc(CN3C(=O)NC4(CCOCC4)C3=O)cc2)cc1` the same measures were -3.21%, -9.88%, -2.83%, -3.24% and -0.494%.
On to `Cc1ccc(N2C(=O)c3cc4occc4n3CC2(C)C(=O)NC2CCCC(C)C2C)c(C)c1` (stereo not given), for which the activity change, negative = inhibition was -4.8% in test [1]; -0.982% in test [2]; 8.3% in test [3]; -3.35% in test [4]; -5.05% in test [5].
For `NCC(CNc1nc(Nc2cccc(NC(=O)N3CCCC3)c2)ncc1I)C(=O)c1cccs1` (stereo not given) the same measures were -31.7%, -2.36%, -66.5%, -32.4% and -7.29%.
Take `CC(=O)N1Cc2ccccc2NC(=O)C12CCNCC2`: the activity change, negative = inhibition is -3.95% in test [1]; -9.51% in test [2]; -3.52% in test [3]; -13.3% in test [4]; -14.1% in test [5].
In the same order, the values of `O=S(=O)(c1cc(F)ccc1F)N1CCC(n2cc(CCCO)nn2)CC1` are 0.524%, -1.92%, -0.232%, 0.423% and -5.56%.
For `CCCn1c(=O)c2ccc(C(=O)NCC(C)C)cc2n2c(SCC(=O)Nc3ccc(C)cc3)nnc12` the same measures were 0.147%, 0%, 4.04%, -6.17% and 5.41%.
For `O=C(c1ccc2ccccc2n1)N1C[C@@H](CO)[C@H](c2ccncc2)C1` the same measures were -6.35%, -2.27%, -1.37%, -1.77% and -7.63%.
For `CC1OC(=O)C[C@@H]2C(C(=O)O)=CO[C@@H](O[C@H]3O[C@H](CO)[C@@H](O)[C@H](O)[C@H]3O)[C@H]12` (stereo not given in full), the activity change, negative = inhibition in test [1] was 1.81%; in test [2], 3.93%; in test [3] it was 10.1%; in test [4], -7.86%; in test [5], 6.06%.
For `Cc1ccc(-c2nnc3n(Cc4ccccc4)c(=O)c4ccccc4n23)cc1` the same measures were -17.1%, 0.078%, -9.07%, -9.21% and -10.1%.
In the same order, the values of `O=C(NC1CCCCC1)c1ccc2c(=O)nc3c(-c4ccc(F)cc4)n[nH]n3c2c1` are 2.04%, 0%, -1.17%, 1.83% and -3.27%.
As to `COc1cc([C@@H](O[C@@H]2O[C@H](CO)[C@@H](O)[C@H](O)[C@H]2O)[C@@H]2CO[C@H](c3ccc(O)c(OC)c3)[C@H]2CO)ccc1O`, the activity change, negative = inhibition in test [1] was -2.32%; in test [2], -6.23%; in test [3] it was 4.72%; in test [4], -13.4%; in test [5], -7.77%.
For `O=C(CCc1nnc2n(Cc3ccc(Cl)cc3)c(=O)c3ccccc3n12)N1CCN(c2ccccc2)CC1`, the activity change, negative = inhibition in test [1] was -0.909%; in test [2], 2.48%; in test [3], 6.25%; in test [4], -0.325%; in test [5], 2.37%.
For `CC(C)OCCCn1c(=O)c2ccccc2n2c(=O)n(Cc3ccccc3Cl)nc12`, the activity change, negative = inhibition in test [1] is -5.7%; in test [2], 0.756%; in test [3] it was 5.07%; in test [4], -16.6%; in test [5], -1.34%.
In the same order, the values of `O=C(NCCOc1ccccc1)[C@@H]1C[C@H](c2ccc(F)cc2)N([S+](=O)([O-])C2CC2)C1` are -8.93%, -5.94%, -2.49%, -14.2% and -7.26%.
For `COc1ccc(CNC(=O)c2cc3n(n2)CC(C)(C(=O)NCc2ccc(C)cc2)N(C)C3=O)c(OC)c1` (stereo not given) the same measures were 6.28%, 0%, 8.88%, 1.63% and 6.02%.
For `CC(O)c1cc2n(n1)CCN(S(=O)(=O)c1ccc3c(c1)NC(=O)CO3)C2` (stereo not given) the same measures were -3.96%, -7.17%, -2.46%, -9.91% and -5.49%.
As for `Cc1cc(NC(=O)Cn2c(=O)oc3cc(S(=O)(=O)N4CCCC4)ccc32)ccc1Br`, the activity change, negative = inhibition in test [1] was 7.91%; in test [2] it was 0%; in test [3], 8.92%; in test [4], -5.3%; in test [5], -28.2%.
As for `CCCO[C@@H]1O[C@H](CO)[C@@H](O)[C@H](O)[C@H]1O[C@@H]1OC[C@@H](O)[C@H](O)[C@H]1O`, the activity change, negative = inhibition was 4.16% in test [1]; 6.98% in test [2]; -8.44% in test [3]; -5.36% in test [4]; -0.694% in test [5].
In the same order, the values of `CC(C)CCN1CCC2(CC1)COc1ccccc1C(=O)N2` are -4.99%, -6.81%, -1.95%, -8.89% and -10.3%.
For `CC(C)CNC(=O)c1cc(-c2ccsc2)nc2c1cnn2C` the same measures were -25.3%, -23.4%, -33.5%, -22.6% and -15%.
In the same order, the values of `CC(C)CCNC(=O)N1CCn2cccc2C1C` (stereo not given) are 4.28%, 3.07%, 13.6%, 2.54% and 7.02%.
On to `COCCOCc1nc(C2CCN(C(=O)Nc3ccc(C(=O)OC)cc3)CC2)no1`, for which the activity change, negative = inhibition is -5.13% in test [1]; -5.8% in test [2]; -5.45% in test [3]; -8.04% in test [4]; -24.4% in test [5].
In the same order, the values of `O=C(Nc1ccccc1)NC1CCCN(c2ccc3nnc(-c4ccccc4)n3n2)C1` (stereo not given) are -0.371%, 1.18%, 1.84%, -2.47% and 1.99%.
For `Cc1nnc([C@@H]2CC(F)(F)CN2C(=O)c2cccc3[nH]ccc23)o1` the same measures were 0.544%, -1.81%, -1.6%, 1.43% and 2.3%.
For `CO/N=C(/C(=O)N[C@@H]1C(=O)N2C(C(=O)O)=C(Cn3ccc(=N)n3CCO)CS[C@H]12)c1csc(N)n1` the same measures were 0.51%, 5.08%, 12.2%, -8.95% and 5.09%.
Regarding `O=C(CC[C@H]1NC(=O)c2ccccc2NC1=O)Nc1nnc(C2CC2)s1`, the activity change, negative = inhibition in test [1] is -6%; in test [2], -8.89%; in test [3], -2.16%; in test [4], -14.6%; in test [5], -7%.
In the same order, the values of `COCC1CCN(CC2(O)CCCN(Cc3cccc(F)c3F)C2=O)CC1` (stereo not given) are -1.42%, -2.74%, 2.33%, -9.38% and -2.24%.
